Several values for one entry are separate records, joined by “and”; a condition that tells them apart may be missing. Equal values may be shown once. The whole screen tested about 77,000 compounds, of which about 4,600 (6%) were called active. The inconclusive results got no clear call from the source; some entries with a clear call stand among them for comparison.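 How the source made its calls: active means mean inhibition above about 93%, with at least 55% of replicates each passing it (limit read from the data, passing the limit was not always enough); inconclusive means only one of those two conditions holds; inactive means neither condition holds.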
assay: T. cruzi intracellular proliferation inhibitors, primary screen, cell-based, beta-gal Tulahuen parasites, NIH3T3 host, luminescence (AID 624255); conditions: T. cruzi beta-gal in NIH3T3, GalScreen luminescence, 90 h; at 8.34 µM; hits give high values

Compound	inhibition
C[C@H]1CN([C@@H](C)CO)C(=O)c2cc(NS(=O)(=O)c3cn(C)cn3)ccc2O[C@@H]1CN(C)Cc1ccc(C(=O)Nc2ccccc2N)cc1	inconclusive: 114%
O=C(C[C@H]1CC[C@@H]2[C@H](COC[C@@H](O)CN2C(=O)Nc2ccc(Cl)c(Cl)c2)O1)NCc1ccc(Cl)cc1	active: 102%
COc1ccccc1CNC(=O)C[C@@H]1CC[C@@H]2[C@H](COC[C@H](O)CN2Cc2ccc3c(c2)OCO3)O1	active: 150%
OC[C@H]1[C@H](c2ccc(-c3cccnc3)cc2)[C@@H]2CN(Cc3ccccn3)CCCCN12	inconclusive: 98.1%
CNC[C@H]1OCc2cn(nn2)CCCC(=O)N([C@H](C)CO)C[C@H]1C	inconclusive: 121%
O=C(C[C@H]1CC[C@H](NS(=O)(=O)c2ccc(F)cc2)[C@@H](CO)O1)NC1CCC1	inactive: -21.4%
CO[C@H]1CN(C)C(=O)c2ccc(NS(=O)(=O)c3ccccc3C)cc2OC[C@@H](C)N(C)C[C@@H]1C	inactive: 47.8%
COCC#Cc1ccc2c(c1)O[C@@H](CN(C)Cc1ccncc1)[C@@H](C)CN([C@H](C)CO)S2(=O)=O	inconclusive: 95.4%
CC(C)CC#Cc1ccc2c(c1)O[C@H](CN(C)Cc1ccccc1F)[C@H](C)CN([C@@H](C)CO)S2(=O)=O	inconclusive: 128%
CO[C@H]1CN(C)C(=O)c2ccc(NC(=O)c3nc4ccccc4s3)cc2OC[C@H](C)N(Cc2cccnc2)C[C@H]1C	inactive: 89.8%
CC(C)NC(=O)N(C)C[C@H]1Oc2cc(-c3ccncc3)ccc2S(=O)(=O)N([C@H](C)CO)C[C@H]1C	active: 109%
COc1cccc(-c2ccc3c(c2)[C@H]2[C@H](CCN2C(=O)C2CCOCC2)[C@H](CO)N3)c1	inconclusive: 95.7%
C[C@H](CO)N1C[C@H](C)[C@H](CN(C)C(=O)Nc2ccc(C(F)(F)F)cc2)OCCCC[C@H](C)Oc2ccc(NC(=O)Cc3ccccc3)cc2C1=O	inconclusive: 126%
Cc1noc(C)c1NC(=O)Nc1cccc2c1O[C@@H](CN(C)Cc1ccncc1)[C@H](C)CN([C@@H](C)CO)C2=O	active: 110%
COc1ccc(NC(=O)Nc2ccc3c(c2)C(=O)N([C@@H](C)CO)C[C@H](C)[C@H](CN(C)C(=O)Nc2ccc4c(c2)OCO4)OCCCC[C@H](C)O3)cc1	inconclusive: 96.5%
COc1ccc(S(=O)(=O)N(C)C[C@H]2OCc3cnnn3CCCC(=O)N([C@@H](C)CO)C[C@H]2C)cc1	inconclusive: 117%
Cc1noc(C)c1NC(=O)N1C[C@@H](O)COC[C@H]2O[C@@H](CC(=O)NCC3CC3)CC[C@@H]21	inconclusive: 97.3%
CC(C)NC(=O)N(C)C[C@H]1Oc2cc(-c3ccncc3)ccc2S(=O)(=O)N([C@@H](C)CO)C[C@H]1C	inconclusive: 103%
Cc1ccc(-c2ccc([C@@H]3[C@H]4CN(S(=O)(=O)c5cccc(C)c5)CCCCN4[C@H]3CO)cc2)cc1	inconclusive: 96.1%
C/C=C/c1ccc([C@@H]2[C@H]3CN(C(=O)Nc4ccc(F)cc4)CCCCN3[C@H]2CO)cc1	inconclusive: 96.9%

Compound	inhibition
C[C@@H]1CN([C@@H](C)CO)C(=O)c2cc(C#Cc3ccccn3)cnc2O[C@H]1CN(C)Cc1ccncc1	inconclusive: 76.9%
Cc1ccc(S(=O)(=O)Nc2ccc3c(c2)C(=O)N([C@H](C)CO)C[C@@H](C)[C@@H](CN(C)C(=O)Nc2ccc(F)cc2)O3)cc1	inactive: -32.6%
C[C@@H]1CN([C@@H](C)CO)S(=O)(=O)c2ccc(C3=CCCCC3)cc2O[C@H]1CN(C)C(=O)c1ccc(F)cc1	inconclusive: 104%
Cc1cccc(-c2ccc([C@H]3[C@@H](CO)N4CCCCN(CCC(F)(F)F)C[C@@H]34)cc2)c1	inconclusive: 96.8%
OC[C@@H]1[C@H](c2ccc(C3=CCCC3)cc2)[C@H]2CN(Cc3cncnc3)CCCCN12	inconclusive: 97.6%
O=C(C[C@H]1CC[C@H]2[C@@H](COC[C@H](O)CN2S(=O)(=O)c2ccc(F)cc2)O1)NCC1CCCCC1	inactive: 22.2%
CNC[C@@H]1Oc2cc(C#CCC3CCCC3)ccc2S(=O)(=O)N([C@H](C)CO)C[C@H]1C	inconclusive: 98.8%
COc1ccc(S(=O)(=O)N[C@@H]2C=C[C@@H](CC(=O)N3CCC(Cc4ccccc4)CC3)O[C@H]2CO)cc1	inconclusive: 105%
OC[C@@H]1[C@@H](c2ccc(-c3cccnc3)cc2)[C@@H]2CN(CC3CCOCC3)CCCCN12	inactive: -46.8%
CC(C)C#Cc1ccc([C@@H]2[C@H](C#N)N(C(=O)C3CCC3)[C@H]2CO)cc1	inconclusive: 96.3%
CC(=O)N(C)C[C@@H]1Oc2cc(C#CC3CCCCC3)ccc2S(=O)(=O)N([C@H](C)CO)C[C@H]1C	inconclusive: 101%
O=S(=O)(c1ccccc1)N1CCCCN2[C@H](C1)[C@@H](c1ccc(C#Cc3cccnc3)cc1)[C@@H]2CO	inconclusive: 95.5%
CS(=O)(=O)N1[C@H](CO)[C@@H](c2ccc(C#Cc3cccc(F)c3)cc2)[C@@H]1C#N	inactive: 93.8%
COc1ccc(S(=O)(=O)N[C@H]2C=C[C@@H](CC(=O)N3CCC(Cc4ccccc4)CC3)O[C@@H]2CO)cc1	inactive: -7.75%
C[C@@H]1CN([C@@H](C)CO)C(=O)Cc2cc(NS(=O)(=O)c3cn(C)cn3)ccc2O[C@@H]1CN(C)C(=O)Nc1ccc(F)cc1	inactive: -3.66%
CC(C)NC(=O)N(C)C[C@H]1Oc2ccc(NC(=O)Nc3ccccc3)cc2C(=O)N([C@@H](C)CO)C[C@H]1C	inactive: -24.7%
C[C@H](CO)N1C[C@H](C)[C@H](CN(C)Cc2ccc(C(=O)Nc3ccccc3N)cc2)Oc2c(NC(=O)c3nc4ccccc4s3)cccc2C1=O	inconclusive: 95.2%
COc1ccc(S(=O)(=O)Nc2ccc3c(c2)C(=O)N([C@@H](C)CO)C[C@H](C)[C@@H](CN(C)C(=O)Nc2cccc4ccccc24)OCCCC[C@H](C)O3)cc1	inactive: 69.3%
CC(C)NC(=O)N1CCCCN2[C@@H](CO)[C@H](c3ccc(C#CC4CC4)cc3)[C@@H]2C1	inconclusive: 98.3%
C[C@@H]1CN([C@H](C)CO)C(=O)c2cc(C#CC3CCCC3)cnc2O[C@H]1CN(C)C(=O)Nc1ccccc1	active: 99.2%

Compound	inhibition
COc1ccccc1S(=O)(=O)N[C@@H]1C=C[C@@H](CC(=O)N2CCCCC2)O[C@@H]1CO	inactive: -28.2%
C[C@H](CO)N1C[C@H](C)[C@@H](CN(C)Cc2ccc(Oc3ccccc3)cc2)Oc2c(NC(=O)NC3CCCCC3)cccc2C1=O	inconclusive: 120%
CN(C)c1ccc2c(c1)[C@@H]1C[C@@H](CC(=O)N3CCc4ccccc4C3)O[C@H](CO)[C@@H]1O2	inactive: -1%
C[C@@H]1CN([C@H](C)CO)C(=O)Cc2cc(NC(=O)Cc3cn(C)c4ccccc34)ccc2O[C@H]1CN(C)CC1CC1	inactive: 17.3%
O=C(NCCCN1CCOCC1)[C@@H]1[C@@H](CO)[C@@H]2Cn3c(ccc(C4=CCCC4)c3=O)[C@H]1N2	inconclusive: 96.3%
N#Cc1ccc(-c2ccc3c(c2)[C@H]2[C@H](CCN2Cc2ccc4c(c2)OCO4)[C@H](CO)N3)cc1	inconclusive: 101%
C[C@H]1CN([C@@H](C)CO)C(=O)c2cccc(NC(=O)c3nc4ccccc4s3)c2O[C@H]1CN(C)Cc1ccc(C(F)(F)F)cc1	inconclusive: 104%
CC(C)NC(=O)N(C)C[C@@H]1Oc2cc(-c3ccncc3)ccc2S(=O)(=O)N([C@H](C)CO)C[C@@H]1C	inconclusive: 108%
C[C@@H]1CN([C@@H](C)CO)C(=O)c2cc(NC(=O)Nc3cccc4ccccc34)ccc2O[C@@H](C)CCCCO[C@H]1CN(C)Cc1ccc(C(F)(F)F)cc1	inconclusive: 122%
Cc1ccc(S(=O)(=O)Nc2ccc3c(c2)C(=O)N([C@H](C)CO)C[C@@H](C)[C@H](CN(C)CC2CCCCC2)OCCCC[C@@H](C)O3)cc1	inconclusive: 111%
C[C@H](CO)N1C[C@H](C)[C@H](CN(C)Cc2ccc(C(F)(F)F)cc2)OCc2cn(nn2)CCCC1=O	inconclusive: 119%
C[C@H](CO)N1C[C@H](C)[C@@H](CN(C)S(C)(=O)=O)OCCCC[C@H](C)Oc2ccc(N(C)C)cc2C1=O	inactive: 27.8%
CCCC#Cc1ccc([C@@H]2[C@H]3CN(Cc4ccncc4)CCCCN3[C@H]2CO)cc1	inconclusive: 89.7%
COc1ccccc1-c1ccc([C@H]2[C@H](CO)N3CCCCN(C(=O)c4cccnc4)C[C@@H]23)cc1	active: 97.5%
C[C@H]1CN([C@@H](C)CO)C(=O)c2cc(C#Cc3ccc(F)cc3)cnc2O[C@H]1CN(C)S(C)(=O)=O	inactive: 8.67%
C[C@H](NC(=O)C[C@H]1CC[C@H](NC(=O)c2cccnc2)[C@@H](CO)O1)c1ccccc1	inactive: 41.3%
CN1c2ccc(-c3ccc(F)cc3)cc2[C@H]2[C@H](CCN2C(=O)Cc2ccccn2)[C@@H]1CO	inconclusive: 87.6%
C[C@H](CO)N1C[C@H](C)[C@@H](CN(C)C(=O)c2ccc3c(c2)OCO3)Oc2cc(/C=C/c3ccccc3)ccc2S1(=O)=O	active: 116% and active: 119%
COc1ccccc1CN1C[C@H](C)[C@@H](OC)CN(C)C(=O)c2ccc(NC(C)=O)cc2OC[C@@H]1C	inactive: -19.4%
O=C(NCC1CCCCC1)[C@H]1[C@H](CO)[C@H]2Cn3c(cccc3=O)[C@H]2N1C(=O)CC1CC1	active: 101%

Source: PubChem BioAssay AID624255 (Broad Institute, 2012)
